According to paper PMC5083789:
Changes are numbered by the printed parent chain. In names and notes the source's numbering stands. No constants are given. Whether binding was seen depends on the method and setting. Some binding calls cover weakened binding; strength is not graded here. For some of these results: Where a sequence is shown, tags or fusion partners need not be part of it.

The chains behind the UniProt entries cited, without tags or fusion partners.
UniProt P0A3F4: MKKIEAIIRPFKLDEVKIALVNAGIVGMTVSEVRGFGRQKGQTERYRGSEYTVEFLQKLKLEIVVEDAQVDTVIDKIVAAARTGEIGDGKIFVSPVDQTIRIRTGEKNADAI

B1: PipX, full-length GAL4AD or GAL4BD fusion (protein, UniProt Q7X386 1-89)
chain: MASENYLNHPTFGLLYQICSFGDSKELFATLYAQRLFFLVAFDARGTRFEPIGRNEARMLVDNRLRQLRRDASLQEYNQLQQVFKQTFL
B2: PipX R54C, GAL4BD fusion (protein, UniProt Q7X386 1-89)
chain: B1 chain with R54C
B3: PipX L65Q, GAL4BD fusion (protein, UniProt Q7X386 1-89)
chain: B1 chain with L65Q
B4: PipX L80Q, GAL4AD or GAL4BD fusion (protein, UniProt Q7X386 1-89)
chain: B1 chain with L80Q
B5: PipX 2-70 (helix B deleted), GAL4AD or GAL4BD fusion (domain or fragment, UniProt Q7X386 2-70)
chain: ASENYLNHPTFGLLYQICSFGDSKELFATLYAQRLFFLVAFDARGTRFEPIGRNEARMLVDNRLRQLRR
B6: PipX R35A, GAL4AD or GAL4BD fusion (protein, UniProt Q7X386 1-89)
chain: B1 chain with R35A
B7: PipX E4A, GAL4BD fusion (protein, UniProt Q7X386 1-89)
chain: B1 chain with E4A
B8: PipX Y32A, GAL4AD or GAL4BD fusion (protein, UniProt Q7X386 1-89)
chain: B1 chain with Y32A

Assays:
[1] = biological target: PII (glnB product), full-length GAL4AD or GAL4BD fusion (Synechococcus elongatus PCC7942) (UniProt P0A3F4); test: two-hybrid; GAL4AD and GAL4BD fusions in S. cerevisiae PJ696/Y187 diploids; HIS3 and ADE2 reporters, growth on medium lacking His or Ade
[2] = biological target: PII (glnB product), full-length GAL4AD or GAL4BD fusion (Synechococcus elongatus PCC7942) (UniProt P0A3F4); test: yeast three-hybrid; GAL4AD fusion as prey, GAL4BD fusion and HA:PipX (bridge) from a pBridge plasmid; PJ696/Y187 diploids; HIS3 and ADE2 reporters, growth on medium lacking His or Ade; wild-type proteins, or one mutant of PipX or of PII with the other two proteins wild type
[3] = substrate: PII (glnB product), full-length GAL4AD or GAL4BD fusion (Synechococcus elongatus PCC7942) (UniProt P0A3F4); test: two-hybrid; GAL4AD and GAL4BD fusions in S. cerevisiae PJ696/Y187 diploids; HIS3 and ADE2 reporters, growth on medium lacking His or Ade; remark: listed apart in the source

Molecule	binding [1]	binding [2]	binding [3]
PII (glnB product), full-length GAL4AD or GAL4BD fusion (from UniProt P0A3F4 1-112)	binds	binds	
B1			binds
B2			binds
B3			binds
B4			binds
B5			binds
B6			binds
B7			no binding
B8			no binding
